Measurements as given in PubChem BioAssay AID1508623 (National Center for Advancing Translational Sciences (NCATS), 2021).
The campaign covered roughly 48,000 compounds. About 450 (0.94%) were called active. Inconclusive results (about 19%) are left out. Calls come from the whole dose curve; as a rule, active = well fitted inhibition curve with a large enough effect; inconclusive = small, poorly fitted or top-dose-only effect; inactive = no such curve, though single readings can be large or run the other way. The list shows a part of the results.

assay: Primary qHTS for Identification of Small Molecule Inhibitors of Huntingtin Promoter Activity; conditions: HEK293 HTT promoter firefly luciferase reporter (activity 0% = vehicle and -100% = no light), 24 h; series mostly up to 57.5 µM; activity change, negative = inhibition: at the top concentration; note: nearly all actives have a fitted effect of over 50% in size
Procedure, shortened: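 HEK293 Fluc reporter, 2,500 cells/well, 24 h pre-culture; cpds up to 57.5 uM final, 24 h 37 degrees C; Dual-Glo, 10 min RT; normalized vehicle = 0%, zero RLU = -100%.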

Activity change, negative = inhibition, inactive:
CCN(CC)S(=O)(=O)c1ccc2c(c1)N(CC(=O)N1CCN(c3ccc(F)cc3)CC1)C(=O)CO2 -7.8%
Cc1ccc(-c2nc(CCNC(=O)C(=O)Nc3ccc(C)cc3C)cs2)cc1 6.7%
CCOc1ccc(CCNC(=O)Cn2nc(-c3ccc(C)cc3)ccc2=O)cc1OCC -29.7%
COc1cc(CN2CCN(S(=O)(=O)c3ccccc3)CC2)cc(OC)c1O 6.09%
CCc1ccccc1NC(=O)C1=C(C)C(=O)OC12CCCCCC2 -2.3%
COc1cc(NC(=O)CSc2ncc(S(=O)(=O)c3ccc(Br)cc3)c(=O)[nH]2)cc(OC)c1 -1.27%
Cc1c2cnn(CC(=O)NCCc3ccccc3)c(=O)c2c(C)n1Cc1ccccc1 1.78%
Cc1cccc(NC(=O)C(=O)NCC(c2ccc3c(c2)OCO3)N2CCN(C)CC2)c1C (stereo not drawn) -11.5%
COc1ccc(CNC(=O)c2cc3c(=O)oc4ccc(C)cc4c3s2)c(OC)c1 -6.39%
COc1ccc(OC)c(NC(=O)c2cccn2-c2nnc(N3CCCCC3)s2)c1 -3.5%
CC[C@]1(O)C[C@H]2CN(CCc3c([nH]c4ccccc34)[C@@](C(=O)OC)(c3cc4c(cc3OC)N(C=O)[C@H]3[C@@](O)(C(=O)OC)[C@H](OC(C)=O)[C@]5(CC)C=CCN6CC[C@]43[C@@H]65)C2)C1 -25.9%
CCN(CC)S(=O)(=O)c1ccc2oc(C(=O)N(C)Cc3ccccc3)c(C)c2c1 -28.7%
COc1ccc(Cn2c(=O)c3oc4ccccc4c3n(Cc3ccc(F)cc3)c2=O)cc1 -3.8%
COc1ccc(CNC(=O)c2ccc(NC(=O)N3CCCCc4ccccc43)cc2)cc1 -27.9%
Cn1ccc2c(OCC(=O)Nc3cc(C(F)(F)F)ccc3Cl)cccc2c1=O 0%
CCOc1ccccc1NC(=O)CCn1nc(C)c(S(=O)(=O)N2CCCCC2)c1C -27.7%
COc1ccc(C2C=C(c3ccccc3)Nc3nc(NC(=O)/C=C/c4ccccc4)nn32)cc1 (stereo not drawn) -20.2%
CCN(CC)S(=O)(=O)c1ccc2c(c1)c(=O)c(C(=O)N1CCN(c3ccc(F)cc3)CC1)cn2C -9.74%
O=C(Cn1ncc2c3ccccc3n(Cc3cccc(Cl)c3)c2c1=O)NC1CCCCCC1 -6.61%
CCc1ccc(NC(=O)CSC2=Nc3ccccc3C3=NC(CC(=O)NCc4ccccc4)C(=O)N23)cc1 (stereo not drawn) -20%
COC(=O)CCN(c1ccccc1)S(=O)(=O)c1cc(-c2cc(C)no2)ccc1OC 5.69%
CCN1CCSc2ccc(C(=O)NCc3ccc(OC)cc3)cc21 -9.33%
O=C1CCSC2(C(=O)N(Cc3ccc(F)cc3)c3ccccc32)N1c1ccc(F)c(F)c1 (stereo not drawn) -26.2%
CCNC(=O)CC1C(=O)N(c2cccc(OC)c2)C(=O)N1Cc1ccc(OC)c(OC)c1 (stereo not drawn) -11.3%
Cc1nc2ncnn2c(C)c1CCC(=O)NCc1ccccc1Cl -3.77%
CCOc1ccccc1N(CC(=O)N1CCc2ccccc2C1)S(=O)(=O)c1ccccc1 -10.9%
CCOCc1ccccc1Nc1ncnc2onc(-c3ccc(Cl)cc3)c12 -17.6%
CCC(Sc1nncn2c1cc1oc(C)cc12)C(=O)Nc1ccc(F)cc1 (stereo not drawn) -1.01%
CCc1cccc(NC(=O)C(c2ccccc2)N2Cc3ccccc3C2=O)c1 (stereo not drawn) -32.1%
COCCn1c(=N)c(C(=O)NC(C)c2ccccc2)cc2c(=O)n3cc(C)ccc3nc21 (stereo not drawn) -0.735%
COc1ccccc1OCC(O)CO (stereo not drawn) -2.52%
CCc1ccccc1NC(=O)CSc1nnc2ccc3ccccc3n12 -11%
COC(=O)c1cc2oc3ccccc3c2n1Cc1nc(-c2ccccc2C)oc1C -23.2%
O=C(CSCc1cc(=O)c2cc(F)ccc2[nH]1)Nc1ccccc1Cl -18.6%
CCC(C)NC(=O)CCc1c(C)nc2nc(-c3cc(OC)cc(OC)c3)nn2c1C (stereo not drawn) -8.93%
Cc1ccc(NC(=O)[C@@H](c2ccccc2)N2Cc3ccccc3C2=O)cc1 -4.21%
COc1ccc(OC)c(CCNc2nc3ccccc3c3nc(-c4cccnc4)nn23)c1 -10.8%
Brc1ccc(-n2nc(-c3ccccc3)c3cnc4cc5c(cc4c32)OCO5)cc1 -11.3%
Cc1ccc2[nH]c(CSc3nnc(NC(=O)c4ccc(Cl)cc4)s3)cc(=O)c2c1 16.5%
CCCN(CCC)C(=O)c1c2c(nc3ccccc13)C(=O)N(C1CCCCC1)C2 -14.9%
Cc1cc(=O)[nH]c(=S)[nH]1 0.717%
Cc1cc(S(=O)(=O)C(CNC(=O)COc2ccc(Cl)cc2)c2cccs2)ccc1F (stereo not drawn) -19.2%
Cc1ccc(CCNC(=O)C2CCN(Cc3nc(-c4ccccc4C)oc3C)CC2)cc1 -25%
CCCN(C(=O)c1coc(=O)c2ccccc12)c1ccccc1C -23.2%
Cc1ccc(N2C(=O)CSC23C(=O)N(CC(=O)Nc2ccc(C(C)C)cc2)c2ccccc23)cc1C (stereo not drawn) -28.5%
COc1ccc(-n2nc(C(=O)Nc3cccc(C)n3)c3c4ccccc4n(C)c3c2=O)cc1Cl -21.4%
CCOc1ccc(CCNC(=O)CCc2cn(Cc3ccc(F)cc3)c3ccccc23)cc1 -23.7%
Cc1coc2cc3oc(=O)c(CC(=O)NCCc4ccccc4)c(C)c3cc12 -1.45%
CCOc1ccc(NC(=O)Cn2cc(C(=O)c3ccco3)c3ccccc32)cc1 -1.4%
CCn1c(=O)cc(OCC(=O)Nc2cc(Cl)c(OC)cc2OC)c2ccccc21 -5.36%
COc1cc(NC(=O)c2cc(S(=O)(=O)N3CCc4ccccc43)cn2C)cc(OC)c1OC -28.6%
Cc1ccc(C)c(CN2C(=O)c3ccccc3S(=O)(=O)c3ccc(C(=O)N4CCCCC4)cc32)c1 -14.4%
CC(=O)[C@H]1CC[C@H]2[C@@H]3C=CC4=CC(=O)CC[C@@]4(C)[C@@H]3CC[C@]12C -19.4%
COc1ccc(OC)c(NC(=O)c2cnn(-c3ccc(C)cc3)c2C2CCNCC2)c1 -1.06%
CCc1ccccc1N(C)C(=O)c1cc2c(=O)oc3ccccc3c2s1 -6.84%
CCCCCOC(=O)Nc1nc(=O)n([C@@H]2O[C@H](C)[C@@H](O)C2O)cc1F (stereo partly drawn) -2.64%
O=C(COc1ccccc1[N+](=O)[O-])N(Cc1ccco1)c1ccccn1 1.76%
O=C(C1CCC1)N1CCc2cc(S(=O)(=O)NCc3ccc(F)cc3)ccc21 -27.6%
COc1ccc(C)cc1NC(=O)N1CCCn2nc(C)cc21 -15.4%
CCOc1ccccc1NC(=O)Cn1c(=O)n(-c2cccc(C)c2)c(=O)c2c1c1cc(OC)ccc1n2C -6.11%
O=C(Cn1c(=O)n(CC2CCC(C(=O)NCCc3ccccc3)CC2)c(=O)c2ccccc21)Nc1cccc(F)c1 (stereo not drawn) -7.12%
COc1ccc(C2C=C(c3ccccc3)Nc3nc(NS(=O)(=O)c4ccc(Cl)cc4)nn32)cc1 (stereo not drawn) -11.6%
COc1ccc(C(=O)Cn2c(=O)c(-c3cc(C)ccc3NC(C)=O)nc3ccccc32)cc1 -20%
CC(=O)c1cc2c(cc1N/C(=N/S(=O)(=O)c1ccc(Br)cc1)c1ccccc1)OCO2 -26.2%
O=C(COc1ccccc1)NC1CC(=O)N(c2ccc3c(c2)OCCO3)C1 (stereo not drawn) -0.141%
COC(=O)c1ccccc1NC(=O)N1CCc2c(sc3c2CCCC3)C1c1ccc(F)cc1 (stereo not drawn) -5.68%
Cc1ccccc1Cn1c(CN2CCCC(C)C2)nc2c1c(=O)n(C)c(=O)n2C (stereo not drawn) -5.34%
Cc1ccc(C)c(N2CCN(C(=O)c3noc4c3CCCCC4)CC2)c1 -27.6%
Cc1cccn2c(=O)c(/C=C(\C#N)c3nc4ccccc4[nH]3)c(Oc3ccc(C(C)(C)C)cc3)nc12 -4.29% [at 11.5 µM]
O=C(CCc1nc(-c2cccs2)no1)Nc1cccc([N+](=O)[O-])c1 -5.19%
Cc1ccc(C)c(N2CCN(C(c3ccccc3)c3nnc(-c4ccccc4F)o3)CC2)c1 (stereo not drawn) -15.8%
Cc1ccc(OCC(=O)OCc2cc(=O)n3nc(-c4cccs4)sc3n2)cc1C 3.51%
Cc1ccc(-c2nc3n(n2)C(=O)CC(c2ccc(Cl)cc2)S3)cc1 (stereo not drawn) 4.28%
Cc1cc(C)c(NC(=O)Cn2c(=O)n(-c3ccc(CC(=O)NCC4CCCO4)cc3)c(=O)c3ccccc32)c(C)c1 (stereo not drawn) -2.44%
O=C(NCc1ccc(F)cc1)c1cc2n(n1)CCCN(Cc1ccc(F)cc1)C2=O 31.9%
Cc1ccc(C(=O)Nc2sc3c(c2C(=O)NCc2ccco2)CCC(C(C)(C)C)C3)cc1 (stereo not drawn) -1.09%
CCOc1ccc(Sc2cc(C(=O)NC(C)c3ccccc3)c3ccccc3n2)cc1 (stereo not drawn) -27.6%
Cc1ccsc1CN(C(=O)COc1ccc(Br)cc1)C1CCS(=O)(=O)C1 (stereo not drawn) -29.2%
Cc1ccc(OCC(=O)Nc2cc3nn(-c4ccccc4)nc3cc2C)cc1 43.9%
Cc1c[nH]c(C=C2C(=O)Nc3ccccc32)c1CCC(=O)O 3.58%
Cc1ccc(C(=O)Nc2ccc(NC(=O)c3cccs3)cc2)cc1C -6.33%
Cc1cc(Cl)ccc1NC(=O)C(=O)NCc1ccco1 -17.2% [at 11.5 µM]
COc1ccc(NC(=O)Cn2c(SCc3cc(C)ccc3C)nc3ccncc32)c(OC)c1OC -15.6%
COc1ccc2c(CNCc3cccs3)c(C(=O)O)n(Cc3ccccc3)c2c1 -12.2%
O=C(Cn1c(=O)c2cccn2c2ccccc21)NCCc1ccccc1 -3.67%
CCOc1ccccc1NC(=O)Cn1cc(C(=O)c2cccc(OC)c2)c(=O)c2ccc(C)nc21 -17.6%
COc1cc(NC(=O)CN(c2ccc(C)cc2)S(=O)(=O)c2cccc3nonc23)cc(OC)c1 -13.6%
Cc1ccc2nc(NC(=O)COc3ccc(F)cc3)sc2c1 9.56%
CCOc1ccccc1C(=O)Nc1ccc(S(=O)(=O)Nc2nc(C)cc(C)n2)cc1 2.44%
O=C(CSc1nnc(CNC(=O)c2cccc(F)c2)n1-c1ccccc1)Nc1ccccc1F -14.4%
Cc1ccc(NC(=O)Cn2cnc3sc(C(=O)O)c(C)c3c2=O)cc1Cl -4.02%
CCN1CCN(c2nc3c(S(=O)(=O)c4ccc(Br)cc4)nnn3c3ccsc23)CC1 -2.82%
CN[C@@H](C)C(=O)N[C@H]1CN(C(=O)CC(C)C)CC[C@H]2CC[C@@H](C(=O)NC(c3ccccc3)c3ccccc3)N2C1=O -18.5%
